Measurements: publication PMC12548428
Results are given in words; binding and its absence hold for the method and conditions named. For part of these data: Binding seen in cells or lysates may run through a third protein. Some entries that bind do so weakly or less than the wild type. Where a sequence is shown, tags or fusion partners need not be part of it.

Columns and labels:
IKKα, Gal4 DNA-BD fusion = target: T1, IKKα, Gal4 DNA-BD fusion (UniProt O15111); assay: two-hybrid; Matchmaker system (Clontech), Y2H Gold strain; IKKα or IKKβ as Gal4 DNA-BD bait (pGBKT7), CSAD as Gal4 AD prey (pGADT7); selection on SD/-Ade/-His/-Leu/-Trp/+AbA/+X-α-Gal (QDO/A/X), blue colonies
T1 sequence: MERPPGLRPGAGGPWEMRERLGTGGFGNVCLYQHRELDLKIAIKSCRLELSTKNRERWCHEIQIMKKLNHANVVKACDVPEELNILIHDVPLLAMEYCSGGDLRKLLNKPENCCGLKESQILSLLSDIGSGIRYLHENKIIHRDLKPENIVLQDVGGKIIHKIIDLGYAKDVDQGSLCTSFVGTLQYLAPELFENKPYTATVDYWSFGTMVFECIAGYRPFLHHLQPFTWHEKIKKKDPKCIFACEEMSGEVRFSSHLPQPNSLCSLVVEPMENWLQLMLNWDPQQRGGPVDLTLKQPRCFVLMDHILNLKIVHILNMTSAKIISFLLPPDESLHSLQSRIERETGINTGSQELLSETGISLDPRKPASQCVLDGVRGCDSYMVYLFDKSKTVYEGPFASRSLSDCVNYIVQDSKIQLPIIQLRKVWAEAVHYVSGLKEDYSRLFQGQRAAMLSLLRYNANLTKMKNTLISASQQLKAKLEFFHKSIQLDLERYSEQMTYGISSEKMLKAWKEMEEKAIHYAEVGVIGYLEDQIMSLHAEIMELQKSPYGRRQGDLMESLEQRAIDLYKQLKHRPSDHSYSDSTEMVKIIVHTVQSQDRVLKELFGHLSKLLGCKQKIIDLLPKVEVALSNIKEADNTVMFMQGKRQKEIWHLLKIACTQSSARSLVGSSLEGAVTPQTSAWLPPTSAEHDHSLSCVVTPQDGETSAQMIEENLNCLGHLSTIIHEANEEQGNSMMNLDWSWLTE

IKKβ, Gal4 DNA-BD fusion = target: T2, IKKβ, Gal4 DNA-BD fusion (UniProt O14920); assay: as above
T2 sequence: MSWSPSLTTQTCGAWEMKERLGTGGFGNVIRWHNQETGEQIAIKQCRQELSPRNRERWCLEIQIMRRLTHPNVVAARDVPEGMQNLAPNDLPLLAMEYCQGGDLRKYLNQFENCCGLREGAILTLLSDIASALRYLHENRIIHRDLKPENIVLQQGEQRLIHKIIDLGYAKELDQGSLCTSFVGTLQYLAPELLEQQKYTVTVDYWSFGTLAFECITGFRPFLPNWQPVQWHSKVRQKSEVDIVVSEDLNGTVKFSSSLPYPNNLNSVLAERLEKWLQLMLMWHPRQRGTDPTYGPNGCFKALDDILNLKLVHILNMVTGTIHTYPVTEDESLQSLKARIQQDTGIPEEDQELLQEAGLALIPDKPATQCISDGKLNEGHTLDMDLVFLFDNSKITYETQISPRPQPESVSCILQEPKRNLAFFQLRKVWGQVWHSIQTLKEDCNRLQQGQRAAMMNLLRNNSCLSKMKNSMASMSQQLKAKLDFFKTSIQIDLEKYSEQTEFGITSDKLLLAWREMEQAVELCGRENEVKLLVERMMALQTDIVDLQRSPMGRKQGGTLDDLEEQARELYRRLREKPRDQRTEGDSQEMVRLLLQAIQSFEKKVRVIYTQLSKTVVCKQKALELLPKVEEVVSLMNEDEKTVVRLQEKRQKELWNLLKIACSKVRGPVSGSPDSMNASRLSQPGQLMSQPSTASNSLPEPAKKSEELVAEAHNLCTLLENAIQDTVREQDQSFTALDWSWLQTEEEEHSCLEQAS

[1] = target: T3, cysteine sulfinic acid decarboxylase (CSAD), Flag-tagged (human) (UniProt Q9Y600); assay: co-IP; 293T cells cotransfected with Flag-tagged CSAD (full length, T1 or T2) and HA-tagged IKKα (full length, T1, T2) or IKKβ; lysed 36 h after transfection; supernatant with anti-flag M2 affinity beads 3 h, four washes with lysis buffer; Western blot
T3 sequence: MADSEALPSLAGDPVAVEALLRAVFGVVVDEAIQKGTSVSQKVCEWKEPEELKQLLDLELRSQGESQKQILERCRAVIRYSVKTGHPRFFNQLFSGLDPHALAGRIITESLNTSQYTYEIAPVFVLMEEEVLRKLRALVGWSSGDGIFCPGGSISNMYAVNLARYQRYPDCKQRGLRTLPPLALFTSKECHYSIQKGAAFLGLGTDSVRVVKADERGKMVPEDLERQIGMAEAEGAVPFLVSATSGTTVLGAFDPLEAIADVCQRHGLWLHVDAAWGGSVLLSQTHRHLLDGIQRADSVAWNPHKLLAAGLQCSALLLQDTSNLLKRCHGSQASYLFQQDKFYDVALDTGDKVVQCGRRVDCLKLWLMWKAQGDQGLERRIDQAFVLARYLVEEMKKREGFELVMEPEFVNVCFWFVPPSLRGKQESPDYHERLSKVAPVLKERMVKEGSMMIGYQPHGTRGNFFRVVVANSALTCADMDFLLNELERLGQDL

[2] = target: T3, cysteine sulfinic acid decarboxylase (CSAD), Flag-tagged (human); assay: co-IP; 293T cells transfected with CSAD-Flag only; lysate with anti-flag affinity gel; endogenous IKKα and IKKβ detected by Western blot

B1: CSAD, Gal4 AD fusion (enzyme, UniProt Q9Y600 1-493)
chain: T3 sequence
B1 was tested, and the binding (IKKα, Gal4 DNA-BD fusion) was “binds” and the binding (IKKβ, Gal4 DNA-BD fusion) was “no binding”.

B2: IKKα-T1 (1–371 aa), HA-tagged (domain or fragment, UniProt O15111 1-371)
chain: MERPPGLRPGAGGPWEMRERLGTGGFGNVCLYQHRELDLKIAIKSCRLELSTKNRERWCHEIQIMKKLNHANVVKACDVPEELNILIHDVPLLAMEYCSGGDLRKLLNKPENCCGLKESQILSLLSDIGSGIRYLHENKIIHRDLKPENIVLQDVGGKIIHKIIDLGYAKDVDQGSLCTSFVGTLQYLAPELFENKPYTATVDYWSFGTMVFECIAGYRPFLHHLQPFTWHEKIKKKDPKCIFACEEMSGEVRFSSHLPQPNSLCSLVVEPMENWLQLMLNWDPQQRGGPVDLTLKQPRCFVLMDHILNLKIVHILNMTSAKIISFLLPPDESLHSLQSRIERETGINTGSQELLSETGISLDPRKPASQC
B2 was tested, and the binding [1] was “binds”.

B3: IKKβ, HA-tagged (enzyme, UniProt O14920 1-756)
chain: T2 sequence
In the case of B3, the binding [1] is reported as “no binding”.

B4: endogenous IKKβ (enzyme, UniProt O14920 1-756)
chain: T2 sequence
For B4, the binding [2] was “no binding”.

B5: IKKα-T2 (372–745 aa), HA-tagged (domain or fragment, UniProt O15111 372-745)
chain: VLDGVRGCDSYMVYLFDKSKTVYEGPFASRSLSDCVNYIVQDSKIQLPIIQLRKVWAEAVHYVSGLKEDYSRLFQGQRAAMLSLLRYNANLTKMKNTLISASQQLKAKLEFFHKSIQLDLERYSEQMTYGISSEKMLKAWKEMEEKAIHYAEVGVIGYLEDQIMSLHAEIMELQKSPYGRRQGDLMESLEQRAIDLYKQLKHRPSDHSYSDSTEMVKIIVHTVQSQDRVLKELFGHLSKLLGCKQKIIDLLPKVEVALSNIKEADNTVMFMQGKRQKEIWHLLKIACTQSSARSLVGSSLEGAVTPQTSAWLPPTSAEHDHSLSCVVTPQDGETSAQMIEENLNCLGHLSTIIHEANEEQGNSMMNLDWSWLTE
For B5, the binding [1] was “no binding”.
